We go through 53 molecules from PubChem BioAssay AID1347073 (National Center for Advancing Translational Sciences (NCATS), 2019).

In all, about 45,000 compounds went through this assay and about 200 (0.44%) were called active. Inconclusive results (about 7%) are left out. Calls follow the shape of the dose curve; as a rule, active = well fitted activation curve with a large enough effect; inconclusive = small, poorly fitted or top-dose-only effect; inactive = no such curve, though single readings can be large or run the other way. The list shows a part of the results.

The assay in a line: qHTS of TDP-43 Inhibitors: NCGC Sytravon Library Screen. Also: 0% is about no effect; nearly all actives have a fitted effect of over 55% in size. To be noted: yeast TDP-43 toxicity rescue, BacTiter-Glo growth, 24 h; series mostly up to 46.1 µM; growth rescue (activation): at the top concentration. The procedure, abridged:
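TDP-43-expressing yeast, pregrown in raffinose, seeded at OD600 0.02 in galactose medium with compound for 24 hr at 30 deg C. Growth read by BacTiter-Glo luminescence, so rescue of toxicity appears as activation.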
On the technique in general: Quantitative high-throughput screening tests each substance at several concentrations.
For `O=C(NCc1ccc(C(F)(F)F)cc1)c1cccc2c(-c3ccc(F)c(F)c3)coc12`, the “growth rescue (activation)” value is inactive: -6.34%.

For `COc1ccccc1N(CC(=O)NCc1ccccc1)S(C)(=O)=O`, the “growth rescue (activation)” value is inactive: 7.37%.

In the case of `O=C(N/N=C/c1cccc(F)c1)c1c(O)c2c([nH]c1=O)CCCC2`, the “growth rescue (activation)” value was inactive: 4.02%.

With `CCOc1ccc(/C=N/OCC(=O)NC(c2ccccc2)c2ccccc2)cc1`, the “growth rescue (activation)” value was inactive: -7.26%.

Regarding `CCN(C(=O)CSc1nc2cc(Cl)ccc2c(=O)n1Cc1ccco1)C1CCS(=O)(=O)C1` (stereo not drawn), the “growth rescue (activation)” value is inactive: 3.37%.

In the case of `COc1cccc(/C=N/Nc2nnc3c(n2)[nH]c2ccccc23)c1OC`, the “growth rescue (activation)” value was inactive: -5.59%.

Consider `Cc1cc2nc(Sc3c([N+](=O)[O-])nc(C)n3Cc3ccccc3)[nH]c2cc1C`, for which the “growth rescue (activation)” value was inactive: 3.44%.

For the molecule `COc1ccc(CC(=O)Nc2c3c(nn2-c2cccc(C)c2C)CS(=O)C3)cc1` (stereo not drawn), the “growth rescue (activation)” value was inactive: 28.4%.

Consider `Cc1ccc(NC(=O)C2CCCN(c3nccc(C)n3)C2)c(C)c1` (stereo not drawn), for which the “growth rescue (activation)” value is inactive: 12.7%.

With `CCOC(=O)N1CCC(=NNC(=O)COc2cccc(C)c2)CC1`, the “growth rescue (activation)” value was inactive: 2.65%.

For `CC(C)C[C@H](NC(=O)Nc1cccc(Cl)c1)C(=O)O`, the “growth rescue (activation)” value is inactive: -21.5%.

Regarding `CCOC(=O)/C(C#N)=C1/SC(CCO)C(=O)N1c1ccccc1` (stereo not drawn), the “growth rescue (activation)” value was inactive: 33.8%.

As for `COc1ccc2c(c1)-c1nc(NC(=O)c3ccc(C)cc3)sc1CC2`, the “growth rescue (activation)” value is inactive: 11.3%.

With `Cc1ccc(S(=O)(=O)N2CCC[C@H]2C(=O)NC2=NCCS2)cc1`, the “growth rescue (activation)” value is inactive: 17.9%.

As for `CC(C)c1nnc(NC(=O)CS(=O)(=O)Cc2ccccc2)s1`, the “growth rescue (activation)” value was inactive: 14.4%.

For the molecule `O=S(=O)(c1ccccc1)c1nc(-c2cccs2)oc1NCc1cccnc1`, the “growth rescue (activation)” value is inactive: 12.3%.

For `COc1ccc(C(=O)O)cc1S(=O)(=O)Nc1ccc(N2CCCCC2)cc1`, the “growth rescue (activation)” value is inactive: 12.6%.

Take `Cc1[nH]n(-c2ccccc2)c(=O)c1C(=O)Nc1ccccc1`: the “growth rescue (activation)” value was inactive: -2.34%.

Regarding `COc1ccc(-c2cn3cccnc3n2)cc1`, the “growth rescue (activation)” value is inactive: 23.2%.

As for `CC(CNC(=O)CN1C(=O)CCSc2ccccc21)c1ccccc1` (stereo not drawn), the “growth rescue (activation)” value was inactive: -4.16%.

With `Cc1c(Cl)cccc1NC(=O)Nc1ccc(C(=O)N2CCCC2)cc1`, the “growth rescue (activation)” value is inactive: -34.9%.

Consider `O=C(N/N=C/c1cccnc1)c1cc(O)c(O)c(O)c1`, for which the “growth rescue (activation)” value is inactive: -14.6%.

Turning to `Cc1ccc(S(=O)(=O)N2CCCC(C(=O)NC3CC3)C2)cc1` (stereo not drawn), the “growth rescue (activation)” value is inactive: -0.258%.

With `N#Cc1ccccc1OCC(=O)OCC(=O)NC1CCCCC1`, the “growth rescue (activation)” value was inactive: 8.2%.

Turning to `CCN(CC)C(=O)CS(=O)(=O)CC(=O)Nc1cc(OCCOC)c(Cl)cc1Cl`, the “growth rescue (activation)” value is inactive: -7.11%.

Regarding `O=C(NCC(=O)N1CCN(c2ccccc2F)CC1)c1ccco1`, the “growth rescue (activation)” value was inactive: 0.59%.

For `COc1ccc(N2CCN(C(=O)CCNS(=O)(=O)c3ccc(C)cc3)CC2)cc1`, the “growth rescue (activation)” value is inactive: 3.54%.

Regarding `O=C(N/N=C/c1cc(Cl)cc([N+](=O)[O-])c1O)NC12CC3CC(CC(C3)C1)C2`, the “growth rescue (activation)” value is inactive: 19.2%.

On to `Cc1c(O)nc(SCC(=O)Nc2ccc(Cl)cc2Cl)n(-c2ccc(F)cc2)c1=O`, for which the “growth rescue (activation)” value was inactive: 4.76%.

Regarding `Cc1ccnc(SCC(=O)c2ccc(Br)cc2)c1C#N`, the “growth rescue (activation)” value was inactive: 16.9%.

Turning to `Cc1ccc(NC(=S)N=Nc2c(O)n(C)c3ccc(S(=O)(=O)N4CCOCC4)cc23)cc1C`, the “growth rescue (activation)” value is inactive: 22.6%.

Take `Cn1c(SCC(=O)N2CCCC2)nnc1-c1cccs1`: the “growth rescue (activation)” value is inactive: -29.2%.

On to `CNC(=O)CC1C(=O)N(c2ccc(F)cc2)C(=S)N1NC(=O)c1ccc(Cl)cc1` (stereo not drawn), for which the “growth rescue (activation)” value is inactive: -8.09%.

In the case of `O=C(NCCCN1CCOCC1)c1cc(-c2ccc(Cl)c(Cl)c2)on1`, the “growth rescue (activation)” value was inactive: -11.3%.

In the case of `CC(=O)Nc1ccc(NC(=O)CC2(CC(=O)N3CCOCC3)CCCC2)cc1`, the “growth rescue (activation)” value was inactive: 23.2%.

Turning to `COc1cc(/C=N/n2c(-c3n[nH]c4c3CCC4)n[nH]c2=S)cc(OC)c1O`, the “growth rescue (activation)” value is inactive: 3.65%.

Take `Cc1[nH]c(=O)[nH]c(=O)c1/C=C/C(=O)OCC(C)C`: the “growth rescue (activation)” value was inactive: -0.814%.

With `Cc1cc(C)cc(Nc2cc(=O)n(C3CCCCC3)c(=O)[nH]2)c1`, the “growth rescue (activation)” value was inactive: 9.28%.

As for `COc1ccc(OC)c(-c2csc(NC(=O)CSc3ccc(Br)cc3)n2)c1`, the “growth rescue (activation)” value was inactive: 5.15%.

Consider `CCOC(=O)C1CCC(CN(Cc2ccccc2C)S(=O)(=O)c2ccc([N+](=O)[O-])cc2)CC1` (stereo not drawn), for which the “growth rescue (activation)” value is inactive: -3.63%.

With `COc1cc(C(=O)Nc2ccc(NC(C)=O)cc2)ccc1OCc1ccccc1`, the “growth rescue (activation)” value was inactive: -0.917%.

`Cc1ccc(C)c(N2CC(C(=O)Nc3cc(C)on3)CC2=O)c1` (stereo not drawn): the “growth rescue (activation)” value is inactive: 12.8%.

Turning to `CC(=O)N1CCN(S(=O)(=O)c2cccc(C(=O)OCN3C(=O)c4ccccc4C3=O)c2)CC1`, the “growth rescue (activation)” value was inactive: 7.45%.

With `O=C(CCn1c(=O)c2sccc2n(Cc2ccc(F)cc2)c1=O)NCc1ccc2c(c1)OCO2`, the “growth rescue (activation)” value is inactive: 11%.

Take `CCOc1ccc(C(C)=O)cc1CSC(=N)N`: the “growth rescue (activation)” value was inactive: 5.39%.

`Cc1ccc(-n2nc3cc(C)c(NC(=O)c4ccc(-c5ccccc5)o4)cc3n2)cc1`: the “growth rescue (activation)” value was inactive: 2.68%.

Consider `CCCCCn1c(=O)[nH]c2cc(C(=O)NC3CCN(Cc4ccccc4)CC3)ccc2c1=O`, for which the “growth rescue (activation)” value is inactive: 23.8%.

For `Cc1cc(NC(=O)Cc2ccccc2)ccc1NC(=O)c1cccs1`, the “growth rescue (activation)” value is inactive: -15.5%.

Regarding `O=C(NCC1CCCCC1)c1cc([N+](=O)[O-])ccc1Cl`, the “growth rescue (activation)” value is inactive: 15.3%.

Regarding `COC(=O)c1cc(Br)c(=O)n(-c2ccccc2OC)c1`, the “growth rescue (activation)” value is inactive: 2.42%.

For the molecule `COc1cccc(Nc2nnc(-c3cc4ccc(O)cc4oc3=O)s2)c1`, the “growth rescue (activation)” value was inactive: 4.69%.

On to `CC(NC(=S)NC1CCCCC1)C(c1ccccc1)N1CCOCC1` (stereo not drawn), for which the “growth rescue (activation)” value is inactive: -24.7%.

As for `CC(O)CNc1nc2sc3c(c2c(=O)n1Cc1ccco1)CCCCC3` (stereo not drawn), the “growth rescue (activation)” value is inactive: 14.4%.
